Patent US5854216A, “Marker for growth hormone-releasing factor receptors” (Universite de Montreal, priority 1996, dated 1998)
Not every detail of the peptide structures is certain; ends, links or a residue may be inferred. Some entries repeat one wording, which the source may state once for all of them. Ends that are not written are not given here.

How the values were obtained:
[1] = biological target: T1, GRF receptors ([^125 I-Tyr^10 ]hGRF(1-44)NH2 binding sites in rat adenopituitary) (Rattus norvegicus, UniProt Q02644); assay: Competitive binding assay with [^125 I-Tyr^10 ]hGRF(1-44)NH2 on anterior pituitary homogenates; conditions: for Relative affinity: ratio IC50 of hGRF(1-29)NH2 /IC50 analogue; for biological activity compared to that of native GRF: rat adenopituitary
T1 construct: from tissue; host or cells: rat anterior pituitary homogenate
T1 sequence (Q02644 23-423 isoform Q02644-2 limits assumed): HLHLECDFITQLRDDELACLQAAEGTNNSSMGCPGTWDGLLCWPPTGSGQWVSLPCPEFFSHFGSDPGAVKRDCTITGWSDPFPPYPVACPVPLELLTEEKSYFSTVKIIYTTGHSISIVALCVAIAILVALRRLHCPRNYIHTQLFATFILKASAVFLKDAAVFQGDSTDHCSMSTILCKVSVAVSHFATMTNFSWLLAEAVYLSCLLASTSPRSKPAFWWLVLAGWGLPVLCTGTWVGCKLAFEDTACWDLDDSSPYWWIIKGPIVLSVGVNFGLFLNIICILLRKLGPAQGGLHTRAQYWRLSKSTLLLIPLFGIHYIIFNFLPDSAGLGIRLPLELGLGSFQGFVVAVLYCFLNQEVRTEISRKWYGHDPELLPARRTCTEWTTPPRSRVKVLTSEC
Method: The binding of [^125 I-Tyr^10 ]hGRF(1-44)NH2 was performed on anterior pituitary homogenates as previously described (Gaudreau P. et al., J. Biol. Chem., 1992, 35:1864-1869). Briefly, anterior pituitaries (pit.) were dissected out, rinsed and homogenized for 8 sec with a Micro Ultrasonic Cell Disrupter™, in ice-cold 50 mM Tris-HCl buffer, pH 7.4, containing 5 mM MgCl2 and 5 mM EDTA (1 pit./0.5 ml). These homogenates were used immediately. Competition studies were performed using 35-50 pM [^125 I-Tyr^10 ]hGRF(1-44)NH2 as radio-ligand,50 μl of homogenate (70 to 75 μg of protein), and increasing concentrations of Nε-CF-[Lys^31 ]hGRF or other GRF analogues (0-1000 nM) or with 2.4 μM rGRF(1-29)NH2 for determination of non-specific binding, in a total volume of 300 μl of Tris-HCl buffer, pH 7.4, containing 5 mM EDTA, 5 mM MgCl2 and 0.42% BSA. Incubations were carried out at 23° C. for 60 min and stopped by centrifugation (12,000 g, 5 min, at 4° C.). The radioactivity content in the pellet was measured by gamma counting. The affinity of hGRF(1-29)NH2 was tested in each experiment to assess the validity of the assay and determine the relative affinity of the analogues. […] The Hill values indicate that all these peptides bind to the high and low affinity GRF binding sites found in the anterior pituitary.

[2] = biological target: T2, GRF receptor (adenylate cyclase activity in rat adenopituitary) (Rattus norvegicus, UniProt Q02644); assay: Adenylate cyclase assay on anterior pituitary homogenates (cAMP by HPLC); type: biochemical; conditions: ratio EC50 of hGRF(1-29)NH2 /EC50 analogue
T2 construct: from tissue; host or cells: rat anterior pituitary homogenate
T2 sequence (Q02644 23-423 isoform Q02644-2 limits assumed): T1 sequence (Q02644 23-423 isoform Q02644-2 limits assumed)
Method: The adenylate cyclase activity Nε-CF-[Lys^31 ]hGRF was performed on anterior pituitary homogenates as previously described (Lefrangois L. and Gaudreau P., J. Chromatogr., 1993, 619:116-120). Briefly, anterior pituitaries (pit.) were dissected out, rinsed and homogenized for 8 sec with a Micro Ultrasonic Cell Disrupter™, in ice-cold 20 mM Tris-HCl buffer (pH 7.5) containing 2 mM MgCl2 and 250 mM sucrose (1 pit./0.5 ml).
Samples of anterior pituitary homogenates (30-40 μg protein) were incubated in 1.5 ml Eppendorf™ tubes with 30 mM Tris-HCl, 5 mM MgCl2, 0.5 mM EGTA, containing 0.5 mM ATP, 1 mM IBMX, 10 μM GTP and an ATP regenerating system consisting of 2 mM creatine phosphate, 0.1 mg/ml creatine kinase and, 0.1 mg/ml myokinase in a final volume of 120 μl. Incubations were initiated by adding 20 μl of the homogenate to the reaction mixture which had previously been equilibrated at 37° C. for 2 min. The reactions were carried out for 8 min at 37° C. and stopped by heating the samples in boiling water for 4 min. Samples were centrifuged (12000 g, 5 min, 4° C.) and supernatants were filtered through 0.45 μm Millex HV4 ™ filters and transferred to autosampler vials for HPLC quantification of cAMP.

| Compound | Hill coef. ([1]; Table 4) | Relative affinity ([1]; Table 4) | Hill coef. ([1]; Table 7) | Relative affinity ([1]; Table 7) | Hill coef. ([1]; Table 11) | Relative affinity ([1]; Table 11) | Relative activity ([2]; Table 5) | Relative activity ([2]; Table 12) | biological activity compared to that of native GRF [1] |
| --- | --- | --- | --- | --- | --- | --- | --- | --- | --- |
| CC[C@H](C)[C@H](NC(=O)[C@H](C)NC(=O)[C@H](CC(=O)O)NC(=O)[C@H](C)NC(=O)[C@@H](N)Cc1ccc(O)cc1)C(=O)N[C@@H](Cc1ccccc1)C(=O)N[C@H](C(=O)N[C@@H](CC(N)=O)C(=O)N[C@@H](CO)C(=O)N[C@@H](Cc1ccc(O)cc1)C(=O)N[C@@H](CCCNC(=N)N)C(=O)N[C@@H](CCCCN)C(=O)N[C@H](C(=O)N[C@@H](CC(C)C)C(=O)NCC(=O)N[C@@H](CCC(N)=O)C(=O)N[C@@H](CC(C)C)C(=O)N[C@@H](CO)C(=O)N[C@@H](C)C(=O)N[C@@H](CCCNC(=N)N)C(=O)N[C@@H](CCCCN)C(=O)N[C@@H](CC(C)C)C(=O)N[C@@H](CC(C)C)C(=O)N[C@@H](CCC(N)=O)C(=O)N[C@@H](CC(=O)O)C(=O)N[C@H](C(=O)N[C@@H](CCSC)C(=O)N[C@@H](CO)C(=O)N[C@@H](CCCNC(=N)N)C(N)=O)[C@@H](C)CC)C(C)C)[C@@H](C)O [hGRF(1-29)NH2, reference compound] | 0.50 ± 0.03 | 100 ± 4% | 0.50 ± 0.03 | 100 ± 4% | 0.45 ± 0.04 | 100 ± 19% | 100 ± 15% | 100 ± 15% | – |
| YADAIFTAAYRKVLAQLSARKALQDIMSR-NH2 [Ala^8, Ala^9, Ala^15, Ala^22] | – | – | – | – | 0.47 ± 0.01 | 774 ± 349% | – | 1274 ± 446% | preserved or increased |
| YADAIFTASYRKVLAQLSARKALQDIMSR-NH2 [Ala^8, Ala^15, Ala^22] | – | – | – | – | 0.48 ± 0.05 | 960 ± 269% | – | 1412 ± 380% | preserved or increased |
